Assay results published in the antibiotic and cytotoxicity screens of Wong et al. (2023).
This is one part of the list.

tested on: HepG2; test: cytotoxicity call (relative viability < 0.9); conditions: 10 µM

| Structure (SMILES) | cytotoxicity call |
| --- | --- |
| C[C@H]1CN([C@@H](C)CO)C(=O)Cc2cc(NC(=O)Cc3ccccc3)ccc2O[C@H]1CN(C)S(=O)(=O)c1cn(C)cn1 | inactive |
| C[C@@H]1CCCCO[C@H](CN(C)S(=O)(=O)c2cccs2)[C@@H](C)CN([C@H](C)CO)C(=O)c2cc(NS(=O)(=O)c3ccc(Cl)cc3)ccc2O1 | inactive |
| COc1ccc(S(=O)(=O)Nc2ccc3c(c2)C(=O)N([C@@H](C)CO)C[C@H](C)[C@H](CN(C)S(=O)(=O)c2c(C)noc2C)O3)cc1 | inactive |
| C[C@@H]1CN([C@H](C)CO)C(=O)c2cccc(NC(=O)Nc3ccccc3)c2O[C@@H]1CN(C)S(C)(=O)=O | inactive |
| C[C@@H]1CN([C@@H](C)CO)C(=O)c2cccc(NC(=O)c3cnccn3)c2O[C@H]1CN(C)S(C)(=O)=O | inactive |
| CN1C(=O)c2cc(NC(=O)c3cccs3)ccc2OC[C@H]2O[C@@H](CC(=O)NCC(F)(F)F)CC[C@H]21 | inactive |
| Cn1cnc(S(=O)(=O)N[C@@H]2C=C[C@H](CC(=O)NCC3CC3)O[C@@H]2CO)c1 | inactive |
| COc1ccc(S(=O)(=O)N(C)C[C@H]2Oc3ccc(NC(=O)C4CC4)cc3CC(=O)N([C@H](C)CO)C[C@@H]2C)cc1 | inactive |
| O=c1nc(C(F)(F)F)[nH]c2nc[nH]c12 | inactive |
| C[C@@H]1CN([C@H](C)CO)C(=O)c2cc(C#Cc3ccccc3F)cnc2O[C@@H]1CN(C)C(=O)Cc1ccncc1 | inactive |
| C[C@H]1CN([C@@H](C)CO)C(=O)c2c(c3ccccc3n2C)-c2ccccc2CO[C@H]1CN(C)Cc1cccc(C(F)(F)F)c1 | inactive |
